From PubChem BioAssay AID1794842 (National Center for Advancing Translational Sciences (NCATS), 2023)
Fewer than 10 of roughly 2,800 compounds were called active. Calls follow the shape of the dose curve; as a rule, active = well fitted curve in the direction sought with a large enough effect; inconclusive = small, poorly fitted or top-dose-only effect, or another doubt; inactive = no such curve, though single readings can be large or run the other way. The list shows a part of the results.
Also: % of control where 0% means no effect.

What follows are compounds tested against Metallo-beta-lactamase type 2 (Klebsiella pneumoniae) (UniProt C7C422) (assay: qHTS to identify inhibitors of the New Delhi Metallo-beta-lactamase (NDM): Meropenem screen against the machine-based learning selections.). Details: Purified NDM-1, meropenem hydrolysis, absorbance 300 nm; at 38.4 µM (top of the series) unless noted.
Chain of UniProt C7C422 (C7C422 whole entry, looked up): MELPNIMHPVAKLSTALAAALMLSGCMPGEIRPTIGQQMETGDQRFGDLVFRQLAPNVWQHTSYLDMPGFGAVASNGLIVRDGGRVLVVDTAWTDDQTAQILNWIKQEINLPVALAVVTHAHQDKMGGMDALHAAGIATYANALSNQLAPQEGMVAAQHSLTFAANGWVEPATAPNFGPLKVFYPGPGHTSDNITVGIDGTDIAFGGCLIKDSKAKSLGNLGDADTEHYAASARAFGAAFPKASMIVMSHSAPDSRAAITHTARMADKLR
In short: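 Hydrolysis by 2 nM NDM-1 was followed by absorbance after >30 min compound preincubation in HEPES pH 7.0 buffer with 1 uM Zn2SO4. For nitrocefin (16.7 uM, 15 min, 485 nm) and meropenem (50 uM, 30 min, 300 nm), each substrate ran on separate plates.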
For `CN1C[C@@H](NC(=O)c2ccccn2)C[C@H]1c1nc(-c2ccc(Cl)cc2)no1`, the activity change, negative = inhibition was inactive: 13.9% [at 57.5 µM].
In the case of `O=C(O)C[C@@H]1CCN(S(=O)(=O)c2ccccc2)C[C@@H]1CCN1CCN(c2cccc(C(F)(F)F)c2)CC1`, the activity change, negative = inhibition is reported as inactive: 0.911%.
With `O=C(O)c1cc(-c2cccc(CO)c2)cc(S(=O)(=O)NC2CCCC2)c1` the activity change, negative = inhibition was inactive: 1.38%.
`COc1ccc(S(=O)(=O)N2C[C@@H](F)C[C@H]2C(=O)N2CCCCC2)cc1OC` was tested, and the activity change, negative = inhibition was inactive: -2.33%.
With `Cc1ccccc1-c1cnc2[nH]cc(CC(=O)NCCN3CCOCC3)c2c1` the activity change, negative = inhibition was inactive: 3.34% [at 57.5 µM].
In the case of `COCCOc1ncccc1-c1noc([C@@H]2CCCN2C2CCN(C)CC2)n1`, the activity change, negative = inhibition is reported as inactive: 4.18% [at 57.5 µM].
With `COc1cccc(CN2CCCC3(CCN(C(=O)c4ccc(OC)nc4OC)C3)C2)c1` (centres undefined) the activity change, negative = inhibition was inactive: -0.954%.
In the case of `NC(=O)C1CCCN(CCNc2cc(-c3ccccc3)nc3ccnn23)C1` (centres undefined), the activity change, negative = inhibition is reported as inactive: 29.7%.
With `O=C(c1cnccn1)N1CC[C@H]2COC(=O)N2c2cc(F)ccc2C1` the activity change, negative = inhibition was inactive: 0.729% [at 57.5 µM].
In the case of `CCN1CCC(CC(=O)N2CCCC3(C=Cc4ccccc4O3)CC2)CC1` (centres undefined), the activity change, negative = inhibition is reported as inactive: -1.29%.
`Cn1cc(CNC(=O)C[C@@H]2C[C@H]3O[C@H](CNCc4ccccc4OC(F)(F)F)[C@@H](O)[C@H]3O2)cn1` was tested, and the activity change, negative = inhibition was inactive: 1.44%.
With `NC1CCN(C(=O)C2CCCN(c3nc(-c4ccccc4)nc4c3CCC4)C2)CC1` (centres undefined) the activity change, negative = inhibition was inactive: -0.926%.
With `COC(=O)c1ccc2nc(C[C@@H]3C[C@@H](C(C)C)[C@H](CNCc4ccccc4F)C=C3C)[nH]c2c1` the activity change, negative = inhibition was inactive: -1.26%.
With `O=C([C@H]1CCC[C@@H](O)C1)N1CCN(Cc2ccc(C(F)(F)F)cc2)CC1` the activity change, negative = inhibition was inactive: 0.65%.
With `Cc1cc(=O)n(CC(=O)Nc2cccc(C(C)C)c2)c(N2CCOCC2)n1` the activity change, negative = inhibition was inactive: -0.201%.
`CN1C(=O)COC[C@@H]1[C@H](O)c1ccc(NC(=O)c2ccc3c(c2)OCO3)cc1` was tested, and the activity change, negative = inhibition was inactive: 12.6% [at 57.5 µM].
`CC1(C)C[C@H](NCc2ccc(CO)o2)[C@@]2(CCC(=O)N3CCOCC3)CC[C@](C)(O)C[C@@H]12` was tested, and the activity change, negative = inhibition was inactive: -0.751%.
For `CN1CCCC2(CCN(S(=O)(=O)c3ccc(F)c(F)c3F)C2)C1=O` (centres undefined), the activity change, negative = inhibition was inactive: -0.416%.
`CN1[C@@H](CCC(=O)Nc2ccccc2)CNC(=O)[C@@H]2[C@H]1CCN2Cc1ccc(S(C)(=O)=O)cc1` was tested, and the activity change, negative = inhibition was inactive: -2.99%.
With `NS(=O)(=O)c1ccc(CCNCC2(O)CNCCOC2)cc1` (centres undefined) the activity change, negative = inhibition was inactive: -2.88%.
With `O=C(Cn1ccn2nc3c(c2c1=O)CCCC3)NCc1ccc2c(c1)OCO2` the activity change, negative = inhibition was inactive: 1.26%.
For `NC(=O)[C@H](CC1CCCCC1)NC(=O)[C@@H]1CN(C(=O)c2cccnc2)CCN1C(=O)C1CCNCC1`, the activity change, negative = inhibition was inactive: -0.826%.
`CC(Cc1cccnc1)NC(=O)c1cn(Cc2ccccc2C(F)(F)F)nn1` (centres undefined) was tested, and the activity change, negative = inhibition was inactive: 2.52%.
In the case of `O=C(Cn1ccn2nc(-c3ccc(F)cc3)c(CO)c2c1=O)N1CCCCCC1`, the activity change, negative = inhibition is reported as inactive: 3.05%.
With `CC(O)CNS(=O)(=O)c1cccc(C(=O)Nc2cccc3c2CCC3)c1` (centres undefined) the activity change, negative = inhibition was inactive: 2.1%.
`O=C(NCCc1ccccc1)c1cnc2n[nH]c(-c3ccccc3)c2n1` was tested, and the activity change, negative = inhibition was inactive: 1.69% [at 57.5 µM].
With `Cc1ccc(NC(=O)N2CCCC(c3nnc(CN(C)C)n3C)C2)cc1C` (centres undefined) the activity change, negative = inhibition was inactive: 1.17%.
In the case of `CC(C)(CC(=O)O)CC(=O)N1CCN2C(=O)c3cc(-c4ccc(Cl)cc4)ccc3NC(=O)[C@H]2C1`, the activity change, negative = inhibition is reported as inactive: 7.44%.
In the case of `O=C(O)[C@@H]1CN(C(=O)CCc2cccc(Cl)c2)C[C@H]1c1cccc(F)c1`, the activity change, negative = inhibition is reported as inactive: 1.05%.
In the case of `COc1ccc(CN2CCNc3cc(Nc4cccnc4)ncc3C2)cc1O`, the activity change, negative = inhibition is reported as inactive: 3.47% [at 57.5 µM].
`O=C([C@H]1O[C@H](CCN2C[C@@H]3C[C@H](C2)c2cccc(=O)n2C3)CC[C@@H]1O)N1CCN(c2ccccc2)CC1` was tested, and the activity change, negative = inhibition was inactive: 6.63%.
In the case of `Oc1cccc(-c2cc(-c3cccnc3)c3cncn3c2)c1`, the activity change, negative = inhibition is reported as inactive: 27.1% [at 76.7 µM].
In the case of `O=C(O)c1ccnc(-c2ccnc(NCCc3noc(C4CCC4)n3)n2)c1`, the activity change, negative = inhibition is reported as inactive: 14.3%.
With `O=C(CCCc1ccccc1)N[C@@H]1CN(c2ccncn2)C[C@H]1CO` the activity change, negative = inhibition was inactive: 0.377%.
In the case of `CCN(CC)C(=O)[C@@H]1CCC[C@@H](NC2CCC2)CN(C)C(=O)C1`, the activity change, negative = inhibition is reported as inactive: 1.17% [at 57.5 µM].
`O=C1CCC2(CCN(C/C=C/c3ccccc3)CC2)CN1CCCn1ccnc1` was tested, and the activity change, negative = inhibition was inactive: 4.26%.
In the case of `CC1(C(=O)Nc2ccc(C(N)=O)cc2)CCCc2cnc(Nc3ccccc3)nc21` (centres undefined), the activity change, negative = inhibition is reported as inactive: 2.65% [at 57.5 µM].
For `c1cncc(Nc2cc3c(cn2)CN(Cc2ccsc2)CCN3)c1`, the activity change, negative = inhibition was inactive: 6.63% [at 57.5 µM].
In the case of `CCc1ccc(-c2nc(C3CC(=O)N(c4ccc(C)cc4)C3)no2)cc1` (centres undefined), the activity change, negative = inhibition is reported as inactive: 1.01%.
For `CCc1cc(C(=O)N[C@H](c2ccc(OC)nc2)C2CC(O)C2)ccn1` (some centres undefined), the activity change, negative = inhibition was inactive: 1.5%.
With `CN1C(=O)COC[C@@H]1[C@H](O)c1ccc(NC(=O)c2ccc(F)cc2)cc1` the activity change, negative = inhibition was inactive: 6.57% [at 57.5 µM].
For `O=C(CCCc1ccccc1)NCC(=O)N1CCCCCCNC(=O)CC1c1ccccc1` (centres undefined), the activity change, negative = inhibition was inactive: 1.21%.
With `O[C@@H]1C[C@@H](c2nc(-c3ccc4c(c3)OCO4)no2)N(Cc2cc3ccccc3o2)C1` the activity change, negative = inhibition was inactive: 3.26% [at 57.5 µM].
`COc1cccc(NC(=O)COc2cccc(-c3nnc4n3CCCC4)c2)c1` was tested, and the activity change, negative = inhibition was inactive: -1%.
With `O=S(=O)(NC[C@H]1O[C@@H](CO)[C@@H](O)[C@H]1N1CCCC1)c1cccs1` the activity change, negative = inhibition was inactive: 40.4% [at 57.5 µM].
With `CNc1cc(C)nc(N2C[C@H]3CN(C(=O)N(C)C)C[C@@]3(C(=O)O)C2)n1` the activity change, negative = inhibition was inactive: -0.5%.
For `COCc1noc([C@@H]2CC(F)(F)CN2C(=O)c2occc2C)n1`, the activity change, negative = inhibition was inactive: -3.8%.
For `Cn1ccc2c(C(=O)NCc3cccnc3)nc(Nc3ccccc3)cc21`, the activity change, negative = inhibition was inactive: 4.12% [at 57.5 µM].
In the case of `COC[C@@H]1CN(C(=O)c2cncc(C)c2)C[C@H]1C(N)=O`, the activity change, negative = inhibition is reported as inactive: -0.0842%.
